# The supplement of paper PMC8728848
# The other results are listed elsewhere or left out.
# B1: PX14375l-pdi-526-25-526 (Parabacteroides distasonis) (protein)
# chain: DEEPKSTLTDVAYYKTQSQMESNVNYLYRTGAIGSYVDFGSAYIGPFASIQEELTGYFSNSYEGQEIVCRYTRELTRQQNTMQLASKMDKVWDDCYRGINVANGAIKHMPEVPMDQATADRLTAEAKFFRAFNYFYLVKTFGAVPFYTDPYELAENMELPRTETSTIYNQIESDLKDAMNVLPEATFAANGHRITKYVAAMTLTDVYMYQHKYAEAAETVRIVVNSNHKLTTNDDLAMNSAFNKLRSTDDLDEAIYAYEYDNQISPSNWLPTYAFDGDASSNGLFGTYAITQKVHGPNDRYLNIYESNDLRRQPNQFYHWTYTNPKTGKVWNSVGNAACCWYYYDEDALLTTGRGTKDWNVYRYAEALLDAAESIAQSTGVTAEAAGYLAQVKARANMEGKTAAEIASSLQSMGKQAFIEECWTERLRELPLEFKMWDMCVRTGMFPNISETTPGQVTYIPLVGAKNASGATIKESDLLWPLSVNEIQRNPSLTQNEGYSAK
# What was measured:
# Assay in all cases: glycan array binding signal (z-score within array); higher = stronger binding
# Details in all cases: glycan notation: IUPAC condensed, linker removed
# [1] = target: GlcNAc(b1-3)Gal(b1-4)GlcNAc(b1-3)Gal(b1-4)GlcNAc(b1-3)GalNAc
# Procedure, shortened: (§1)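 Arrays were curated from the Consortium for Functional Glycomics database, 3228 in total, and kept only where the protein sequence was available. Binding is expressed as a within-array Z-score. This score was averaged across arrays of the same protein sequence at different concentrations or buffers and across linkers, and negative values can be read as non-binding.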
# [2] = target: GlcNAc(b1-3)Gal(b1-4)GlcNAc(b1-3)GalNAc
# Procedure, shortened: as §1
# [3] = target: GlcNAc(b1-3)Gal(b1-4)GlcNAc(b1-3)[GlcNAc(b1-3)Gal(b1-4)GlcNAc(b1-3)]GalNAc
# Procedure, shortened: as §1
# [4] = target: GlcNAc(b1-3)Gal(b1-4)GlcNAc(b1-6)[Gal(b1-3)]GalNAc
# Procedure, shortened: as §1
# [5] = target: GlcNAc(b1-3)Gal(b1-4)GlcNAc(b1-6)[GlcNAc(b1-3)Gal(b1-3)]GalNAc
# Procedure, shortened: as §1
# [6] = target: GlcNAc(b1-3)Gal(b1-4)GlcNAc(b1-6)[GlcNAc(b1-3)]Gal(b1-4)GlcNAc
# Procedure, shortened: as §1
# GlcNAc(b1-3)GalNAc = target: GlcNAc(b1-3)GalNAc
# Procedure, shortened: as §1
# GlcNAc(b1-3)Man = target: GlcNAc(b1-3)Man
# Procedure, shortened: as §1
# [7] = target: GlcNAc(b1-3)[GlcNAc(b1-4)][GlcNAc(b1-6)]GlcNAc
# Procedure, shortened: as §1
# [8] = target: GlcNAc(b1-3)[GlcNAc(b1-6)]Gal(b1-4)GlcNAc
# Procedure, shortened: as §1
# [9] = target: GlcNAc(b1-3)[GlcNAc(b1-6)]GalNAc
# Procedure, shortened: as §1
# [10] = target: GlcNAc(b1-4)Gal(b1-4)GlcNAc
# Procedure, shortened: as §1
# GlcNAc(b1-4)GlcNAc = target: GlcNAc(b1-4)GlcNAc
# Procedure, shortened: as §1
# [11] = target: GlcNAc(b1-4)GlcNAc(b1-4)GlcNAc
# Procedure, shortened: as §1
# [12] = target: GlcNAc(b1-4)GlcNAc(b1-4)GlcNAc(b1-4)GlcNAc(b1-4)GlcNAc
# Procedure, shortened: as §1
# [13] = target: GlcNAc(b1-4)GlcNAc(b1-4)GlcNAc(b1-4)GlcNAc(b1-4)GlcNAc(b1-4)GlcNAc
# Procedure, shortened: as §1
# [14] = target: GlcNAc(b1-4)[GlcNAc(b1-6)]GalNAc
# Procedure, shortened: as §1
# [15] = target: GlcNAc(b1-6)Gal(b1-4)GlcNAc
# Procedure, shortened: as §1
# GlcNAc(b1-6)GalNAc = target: GlcNAc(b1-6)GalNAc
# Procedure, shortened: as §1
# [16] = target: GlcNAc6S(b1-3)Gal(b1-4)GlcNAc
# Procedure, shortened: as §1
# Kdn(a2-3)Gal(b1-3)GalNAc = target: Kdn(a2-3)Gal(b1-3)GalNAc
# Procedure, shortened: as §1
# Kdn(a2-3)Gal(b1-3)GlcNAc = target: Kdn(a2-3)Gal(b1-3)GlcNAc
# Procedure, shortened: as §1
# Kdn(a2-3)Gal(b1-4)Glc = target: Kdn(a2-3)Gal(b1-4)Glc
# Procedure, shortened: as §1
# Kdn(a2-3)Gal(b1-4)GlcNAc = target: Kdn(a2-3)Gal(b1-4)GlcNAc
# Procedure, shortened: as §1
# [17] = target: Kdn(a2-3)Gal(b1-4)[Fuc(a1-3)]GlcNAc
# Procedure, shortened: as §1
# Kdn(a2-6)Gal(b1-4)GlcNAc = target: Kdn(a2-6)Gal(b1-4)GlcNAc
# Procedure, shortened: as §1
# [18] = target: Man(a1-2)Man(a1-2)Man(a1-3)Man
# Procedure, shortened: as §1
# [19] = target: Man(a1-2)Man(a1-2)Man(a1-6)[Man(a1-3)]Man
# Procedure, shortened: as §1
# Man(a1-2)Man(a1-3)Man = target: Man(a1-2)Man(a1-3)Man
# Procedure, shortened: as §1
# [20] = target: Man(a1-2)Man(a1-3)[Man(a1-2)Man(a1-6)]Man
# Procedure, shortened: as §1
# [21] = target: Man(a1-2)Man(a1-3)[Man(a1-2)Man(a1-6)]Man(a1-6)[Man(a1-2)Man(a1-2)Man(a1-3)]Man
# Procedure, shortened: as §1
# [22] = target: Man(a1-2)Man(a1-3)[Man(a1-2)Man(a1-6)]Man(a1-6)[Man(a1-2)Man(a1-2)Man(a1-3)]Man(b1-4)GlcNAc(b1-4)GlcNAc
# Procedure, shortened: as §1
# [23] = target: Man(a1-2)Man(a1-3)[Man(a1-6)]Man(a1-6)[Man(a1-2)Man(a1-3)]Man(b1-4)GlcNAc(b1-4)GlcNAc
# Procedure, shortened: as §1
# [24] = target: Man(a1-2)Man(a1-6)[Man(a1-3)]Man(a1-6)[Man(a1-2)Man(a1-2)Man(a1-3)]Man
# Procedure, shortened: as §1
# [25] = target: Man(a1-2)Man(a1-6)[Man(a1-3)]Man(a1-6)[Man(a1-2)Man(a1-2)Man(a1-3)]Man(b1-4)GlcNAc(b1-4)GlcNAc
# Procedure, shortened: as §1
# Man(a1-3)[Man(a1-6)]Man = target: Man(a1-3)[Man(a1-6)]Man
# Procedure, shortened: as §1
# [26] = target: Man(a1-3)[Man(a1-6)]Man(a1-6)[Man(a1-2)Man(a1-3)]Man(b1-4)GlcNAc(b1-4)GlcNAc
# Procedure, shortened: as §1
binder,measurement,setting,value
B1,glycan array binding signal (z-score),[1],-0.081
same,glycan array binding signal (z-score),[2],-0.332
same,glycan array binding signal (z-score),[3],-0.189
same,glycan array binding signal (z-score),[4],-0.344
same,glycan array binding signal (z-score),[5],-0.282
same,glycan array binding signal (z-score),[6],-0.209
same,glycan array binding signal (z-score),GlcNAc(b1-3)GalNAc,-0.354
same,glycan array binding signal (z-score),GlcNAc(b1-3)Man,-0.338
same,glycan array binding signal (z-score),[7],-0.141
same,glycan array binding signal (z-score),[8],-0.345
same,glycan array binding signal (z-score),[9],-0.1
same,glycan array binding signal (z-score),[10],-0.049
same,glycan array binding signal (z-score),GlcNAc(b1-4)GlcNAc,-0.176
same,glycan array binding signal (z-score),[11],-0.432
same,glycan array binding signal (z-score),[12],-0.095
same,glycan array binding signal (z-score),[13],-0.298
same,glycan array binding signal (z-score),[14],-0.36
same,glycan array binding signal (z-score),[15],-0.373
same,glycan array binding signal (z-score),GlcNAc(b1-6)GalNAc,-0.307
same,glycan array binding signal (z-score),[16],0.044
same,glycan array binding signal (z-score),Kdn(a2-3)Gal(b1-3)GalNAc,-0.227
same,glycan array binding signal (z-score),Kdn(a2-3)Gal(b1-3)GlcNAc,-0.366
same,glycan array binding signal (z-score),Kdn(a2-3)Gal(b1-4)Glc,0.066
same,glycan array binding signal (z-score),Kdn(a2-3)Gal(b1-4)GlcNAc,-0.11
same,glycan array binding signal (z-score),[17],-0.415
same,glycan array binding signal (z-score),Kdn(a2-6)Gal(b1-4)GlcNAc,-0.31
same,glycan array binding signal (z-score),[18],-0.307
same,glycan array binding signal (z-score),[19],-0.337
same,glycan array binding signal (z-score),Man(a1-2)Man(a1-3)Man,-0.453
same,glycan array binding signal (z-score),[20],-0.022
same,glycan array binding signal (z-score),[21],0.029
same,glycan array binding signal (z-score),[22],-0.138
same,glycan array binding signal (z-score),[23],-0.236
same,glycan array binding signal (z-score),[24],-0.308
same,glycan array binding signal (z-score),[25],-0.378
same,glycan array binding signal (z-score),Man(a1-3)[Man(a1-6)]Man,-0.327
same,glycan array binding signal (z-score),[26],-0.44
